Experimental data published in PubChem BioAssay AID504832 (National Center for Advancing Translational Sciences (NCATS), 2011).
Values joined by “and” are separate entries in the source; they are usually repeats but may differ in a detail not shown here. Equal entries are not always repeated. In all, about 310,000 compounds went through this assay and about 18,000 (5.8%) were called active. The shares of active, inactive and inconclusive entries below differ from those in the screen. The call rests on the fitted dose curve; in most records, active means well fitted inhibition curve with a large enough effect; inconclusive means small, poorly fitted or top-dose-only effect, or another doubt; inactive means no such curve, though single readings can be large or run the other way. Potencies beside an inconclusive call are fits to weak or partial responses and may not hold up.

Assay: Primary qHTS for delayed death inhibitors of the malarial parasite plastid, 48 hour incubation
Settings: P. falciparum luciferase growth in erythrocytes; series mostly up to 28.7 µM
How it was run: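 A one-generation exposure of luciferase-tagged malaria parasites in RPMI 1640/Albumax erythrocyte culture, 37 C and 5% CO2. Inhibition is inferred from decreased luminescence after adding detection reagent.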
On the % scale 0 is the no-effect control and ±100 the full control effect; potency means the concentration at half of the fitted maximal effect; tags describe the fitted curve by direction and shape.

Compound | Potency | activity change, negative = inhibition
Fc1ccccc1-c1nc(N2CCCCC2)c2ccccc2n1 | inactive | 
COc1ccc(CNC(=O)CN(C)Cc2ccc(SC)cc2)cc1 | inactive | 
CCCN(CCC)C(=O)c1cc([N+](=O)[O-])cc2c1-c1ccc([N+](=O)[O-])cc1C2=C(C#N)C#N | active: 11.7 µM | 
O=C(NCC(c1ccc(F)cc1)N1CCOCC1)c1nn(-c2ccccc2)c(=O)c2ccccc12 (stereo not given) | active: 9.28 µM | 
O=C(NC1CCCC1)c1ccc(Cl)s1 | inconclusive: 18.5 µM [inhibitor, single point] | 
CN(C)CCCN1C(=O)C(=O)/C(=C(/O)c2ccc3c(c2)OCCO3)C1c1ccco1 (stereo not given) | inactive | 
CN(C(=O)COC(=O)/C=C/c1cn(-c2ccccc2)nc1-c1ccc2c(c1)OCCO2)C1CCS(=O)(=O)C1 (stereo not given) | inconclusive: 16.5 µM [inhibitor, single point] | 
Cc1cccc(C)c1N(Cc1ccccc1F)S(C)(=O)=O |  | inactive: 10.7% [at 5.75 µM]
Cc1ccc(Cl)cc1NC(=O)Nc1cccs1 | inconclusive: 13.1 µM [inhibitor, partial curve] | 
Cn1ncc2c(N3CCN(c4ccc(Cl)c(Cl)c4)CC3)ncnc21 | active: 9.28 µM | 
COc1cccc(C2=NOC(C(=O)Nc3ccccc3SC)C2)c1 (stereo not given) | inactive | 
CC(=O)OC1N=C(c2ccccc2)c2ccccc2NC1=O (stereo not given) | inactive | 
Cc1ccc2c(c1)N(CC(=O)N1CCCC(C)C1)C(=O)CO2 (stereo not given) | inactive | 
CSCC[C@H](NC(=O)Nc1cccc(Br)c1)C(=O)O | inactive | 
CC(=O)c1c(OC(=O)c2ccc(C)cc2)c2ccccc2n1C | inconclusive: 18.5 µM [inhibitor, single point] | 
CC(=O)c1c(C)[nH]c(C(=O)OCC(=O)N2CCc3ccccc3C2)c1C | inconclusive: 14.7 µM [inhibitor, single point] | 
CC(C(=O)Nc1ccc(Br)cc1C(=O)c1ccccc1)N1CCCCC1 (stereo not given) | inconclusive: 18.5 µM [inhibitor, single point] | 
Cc1ncc(CN2CCC(CO)(Cc3ccccc3)CC2)s1 | inactive | 
Cc1ccc(S(=O)(=O)CCC(=O)OCc2cc(C)ccc2C)cc1 | inconclusive: 10.4 µM [inhibitor, single point] | 
O=C(NCc1nc2ccccc2[nH]1)c1cccc(S(=O)(=O)N2CCCCC2)c1 | inactive | 
COC(=O)C1=C(C)N(Cc2ccccc2)C(=S)N[C@H]1c1cccc(F)c1 | inconclusive: 415 nM [inhibitor, partial curve, poor fit] and inconclusive: 18.5 µM [inhibitor, single point] | 
O=C1CS/C(=N/N=C/c2ccncc2)N1 | inconclusive: 4.65 µM [inhibitor, partial curve, poor fit] | 
COc1ccc(N(CCC(=O)NCCc2ccccc2)S(=O)(=O)c2ccc(C)cc2C)cc1 | inactive | 
c1ccc2c(-c3ccncc3)c[nH]c2c1 | inconclusive: 6.57 µM [inhibitor, partial curve] | 

Compound | Potency | activity change, negative = inhibition
CC(C)c1nc(SCc2c(F)cccc2Cl)c2c(=O)n(C)c(=O)n(C)c2n1 | inconclusive: 11.7 µM [inhibitor, single point] | 
CC(=O)Nc1cc(NC(C)=O)cc(C(=O)OCC(=O)Nc2ccc(S(=O)(=O)NC3=NCCCCC3)cc2)c1 | inactive | 
O=C(NC1CCCCCCC1)C1c2ccccc2C(=O)N1Cc1cccs1 (stereo not given) | inconclusive: 9.28 µM [inhibitor, partial curve] | 
CCN(CC)C(=O)CSc1nc(-c2cccs2)cc(-c2cccs2)c1C#N | active: 8.28 µM | 
COc1ccc(C(CNC(=O)Cc2cc(OC)c(OC)c(OC)c2)N2CCCC2)cc1 (stereo not given) | inconclusive: 9.28 µM [inhibitor, partial curve] | 
O=C(Nc1cccc(C(F)(F)F)c1)C1CCCN1S(=O)(=O)c1cccc2cccnc12 (stereo not given) | inconclusive: 9.28 µM [inhibitor, partial curve, poor fit] | 
Cc1cc(N2CCC(C(=O)NC3CC3)CC2)nc(-c2ccccc2)n1 | active: 3.7 µM | 
COc1ccc2nc(C)cc(Nc3ccc(C)cc3)c2c1 | inconclusive: 18.5 µM [inhibitor, partial curve, poor fit] | 
NC(=O)CC(NC(=O)Cc1ccc(Br)cc1)c1ccc(NCCc2ccc(Cl)cc2)c([N+](=O)[O-])c1 (stereo not given) | inconclusive: 11.7 µM [inhibitor, partial curve] | 
O=C(c1cc2cc(F)ccc2[nH]1)N1CCc2ccccc21 | inconclusive: 0.586 µM [inhibitor, full curve, poor fit] | 
Cc1cc(C(=O)COC(=O)c2ccc[nH]c2=O)c(C)n1-c1ccc(F)cc1 | inactive | 
COCCn1c(=O)[nH]c2cc(C(=O)NCCN3CCN(c4cccc(Cl)c4)CC3)ccc2c1=O | inconclusive: 10.4 µM [inhibitor, single point] | 
COCCNC(=O)c1cn(C)c2ccc(S(=O)(=O)N3CCCCC3)cc2c1=O | inactive | 
COc1ccc2[nH]c(CN3CCC(CO)(CCOc4ccccc4)CC3)c(C)c2c1 | inconclusive: 6.57 µM [inhibitor, partial curve] | 
O=C(/C=C\c1ccc(-c2cccc([N+](=O)[O-])c2)o1)N1CCOCC1 | inactive | 
CCCC(=O)OCCNc1cc(Sc2nccn2C)c2nonc2c1[N+](=O)[O-] | inconclusive: 11.7 µM [inhibitor, single point] | 
Cc1ccc(S(=O)(=O)Cn2nnnc2CN(Cc2ccco2)CC2CCCO2)cc1 (stereo not given) | inconclusive: 11.7 µM [inhibitor, single point] | 
CCOC(=O)CSc1nc(C)nc2c1sc1nc(C)c(C(C)=O)c(-c3ccc(OC)cc3)c12 | inconclusive: 10.4 µM [inhibitor, single point] | 
Cn1cnc([N+](=O)[O-])c1Sc1ncn[nH]1 | inconclusive: 0.294 µM [inhibitor, full curve, poor fit] | 
COc1ccc(NC(=O)CC2(Cc3ccccc3)CCOC(C)(C)C2)cc1 (stereo not given) | inconclusive: 16.5 µM [inhibitor, single point] | 
COCCN(CC(=O)Nc1cccc(C)c1C)C(=O)c1cc(-c2ccncc2)nc2ccccc12 | active: 10.4 µM | 
Cc1ccc(-n2c(N)c(C(=O)Nc3ccccc3F)sc2=S)cc1C | inactive | 
CC(C)(C)c1ccc2c(c1)OC(C(=O)N/N=C/c1ccc([N+](=O)[O-])o1)CO2 (stereo not given) | inconclusive: 2.33 µM [inhibitor, full curve] | 
O=C(CSc1n[nH]c(-c2ccccc2)n1)Nc1ncc(Br)cc1Br | inactive | 

Compound | Potency | activity change, negative = inhibition
Cc1ccn2c(C(=O)CSc3ccccc3Cl)c(C)nc2c1 | active: 3.7 µM | 
CC1Cc2ccccc2N1C(=O)C12CCC(C)(C(=O)C1)C2(C)C (stereo not given) | inconclusive: 18.5 µM [inhibitor, single point] | 
COc1ccc(N(Cc2cc3ccc(C)cc3[nH]c2=O)C(C)=O)cc1 | inconclusive: 0.165 µM [inhibitor, full curve, poor fit] | 
COc1ccc(N(CC(=O)N2CCN(c3cccc(C)c3C)CC2)S(=O)(=O)c2c(C)noc2C)cc1 | active: 8.28 µM | 
Cc1cc2cc(CN(CCN(C)C)C(=S)NCc3ccco3)c(=O)[nH]c2cc1C | inconclusive: 4.15 µM [inhibitor, partial curve] | 
COc1cccc(C(=O)OCC(=O)c2ccc(S(=O)(=O)N3CCCCC3)cc2)c1OC | inconclusive: 13.1 µM [inhibitor, partial curve, poor fit] | 
COc1ccc(S(=O)(=O)N2CCCCC2)cc1NC(=O)CCNC(=O)c1ccco1 | active: 9.28 µM | 
COc1ccc(N2CCN(c3nc4ccccn4c(=O)c3C=O)CC2)cc1 | inactive | 
COc1ccc(N2Cc3ccc(C(=O)N/N=C\c4ccc(O)cc4O)cc3C2)cc1 | inactive | 
N=c1oc2cc(O)ccc2cc1C(=O)Nc1ccccn1 | inactive | 
CC(C)c1ccc(S(=O)(=O)/N=C2/C=C(Sc3ncn[nH]3)C(=O)c3ccccc32)cc1 | active: 1.31 µM | 
COc1ccccc1N1CCN(C(=O)c2cccc(C(=O)N3CCN(c4ccccc4OC)CC3)c2)CC1 | inconclusive: 0.117 µM [inhibitor, full curve, poor fit] | 
CCOC(=O)C1CCCN(C(=O)C2c3ccccc3Oc3ccccc32)C1 (stereo not given) | inconclusive: 13.1 µM [inhibitor, partial curve, poor fit] | 
CCOc1ccc(CCNC(=O)Cn2c(-c3nonc3N)nc3ccccc32)cc1OCC | inconclusive: 13.1 µM [inhibitor, single point] | 
COc1cccc(/C=N/Nc2ncnc3c2[nH]c2ccc(C)cc23)c1OC | inconclusive: 9.28 µM [inhibitor, single point] | 
Cc1ccc(Cn2ncc3c(N4CCN(c5ccc(C)cc5)CC4)ncnc32)cc1 | inconclusive: 2.62 µM [inhibitor, full curve, poor fit] | 
O=C(O)c1cccc(OS(=O)(=O)c2cc(Br)ccc2Br)c1 | inactive | 
CC1(C)CC(=O)C2=C(C1)OC(N)=C(C#N)C2C1CC=CCC1 (stereo not given) | inconclusive: 13.1 µM [inhibitor, partial curve] | 
Cc1noc(NS(=O)(=O)c2ccc(NC(=O)C(C)C)cc2)c1C | inactive | 
O=C(CSc1nc2ncc(Br)cc2[nH]1)Nc1ccc2c(c1)OCO2 | inconclusive: 13.1 µM [inhibitor, single point] | 
COc1ccc(C(CNC(=O)C2CC(=O)N(Cc3ccccc3)C2)N2CCCC2)cc1 (stereo not given) | inconclusive: 10.4 µM [inhibitor, single point] | 
CN(Cc1ccccc1)C(=O)c1[nH]cnc1C(=O)Nc1cccc(Cl)c1 | inactive | 
